{"source": "the supplement of paper PMC8728848", "binders": {"B1": {"name": "GALT1 115 D492A (Arabidopsis thaliana), Q8L7F9 (protein)", "chain": "DPMRGSHHHHHHGMASMTGGQQMGRDLYDDDDKSRLQKPYITAAASVVVTPNTTLPMEWLRITLPDFMKEARNTQEAISGDDIAVVSGLFVEQNVSKEEREPLLTWNRLESLVDNAQSLVNGVDAIKEAGIVWESLVSAVEAKKLVDVNENQTRKGKEELCPQFLSKMNATEADGSSLKLQIPCGLTQGSSITVIGIPDGLVGSFRIDLTGQPLPGEPDPPIIVHYNVRLLGDKSTEDPVIVQNSWTASQDWGAEERCPKFDPDMNKKVDDLDECNKMVGGEINRTSSTSLQSNTSRGVPVAREASKHEKYFPFKQGFLSVATLRVGTEGMQMTVDGKHITSFAFRDTLEPWLVSEIRITGDFRLISILASGLPTSEESEHVVDLEALKSPTLSPLRPLDLVIGVFSTANNFKRRMAVRRTWMQYDDVRSGRVAVRFFVGLHKSPLVNLELWNEARTYGDVQLMPFVDYYSLISWKTLAICIFGTEVDSAKFIMKTDDAAFVRVDEVLLSLSMTNNTRGLIYGLINSDSQPIRNPDSKWYISYEEWPEEKYPPWAHGPGYIVSRDIAESVGKLFKEGNLKMFKLEDVAMGIWIAELTKHGLEPHYENDGRIISDGCKDGYVVAHYQSPAEMTCLWRKYQETKRSLCCREW"}}, "test_in_all_cases": "glycan array binding signal (z-score within array); higher = stronger binding", "settings_in_all_cases": "glycan notation: IUPAC condensed, linker removed", "key": {"[1]": {"target": "Gal(a1-2)Gal", "summary_of_the_method": "(§1)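 Arrays were curated from the Consortium for Functional Glycomics database, 3228 in total, and kept only where the protein sequence was available. Binding is expressed as a within-array Z-score. This score was averaged across arrays of the same protein sequence at different concentrations or buffers and across linkers, and negative values can be read as non-binding.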"}, "[2]": {"target": "Gal(a1-3)Gal", "summary_of_the_method": "as §1"}, "[3]": {"target": "Gal(a1-3)Gal(b1-3)GlcNAc", "summary_of_the_method": "as §1"}, "[4]": {"target": "Gal(a1-3)Gal(b1-4)Glc", "summary_of_the_method": "as §1"}, "[5]": {"target": "Gal(a1-3)Gal(b1-4)GlcNAc", "summary_of_the_method": "as §1"}, "[6]": {"target": "Gal(a1-3)Gal(b1-4)[Fuc(a1-3)]GlcNAc", "summary_of_the_method": "as §1"}, "[7]": {"target": "Gal(a1-3)Gal(b1-4)[Fuc(a1-3)]GlcNAc(b1-2)Man(a1-3)[Gal(a1-3)Gal(b1-4)[Fuc(a1-3)]GlcNAc(b1-2)Man(a1-6)]Man(b1-4)GlcNAc(b1-4)GlcNAc", "summary_of_the_method": "as §1"}, "[8]": {"target": "Gal(a1-3)GalNAc", "summary_of_the_method": "as §1"}, "[9]": {"target": "Gal(a1-3)[Gal(a1-4)]Gal(b1-4)GlcNAc", "summary_of_the_method": "as §1"}, "[10]": {"target": "Gal(a1-4)Gal(b1-4)Glc", "summary_of_the_method": "as §1"}, "[11]": {"target": "Gal(a1-4)Gal(b1-4)GlcNAc", "summary_of_the_method": "as §1"}, "[12]": {"target": "Gal(a1-4)Gal(b1-4)GlcNAc(b1-3)Gal(b1-4)Glc", "summary_of_the_method": "as §1"}, "[13]": {"target": "Gal(a1-4)GlcNAc", "summary_of_the_method": "as §1"}, "[14]": {"target": "Gal(a1-6)Glc", "summary_of_the_method": "as §1"}, "[15]": {"target": "Gal(b1-2)Gal", "summary_of_the_method": "as §1"}, "[16]": {"target": "Gal(b1-3)Gal", "summary_of_the_method": "as §1"}, "[17]": {"target": "Gal(b1-3)Gal(b1-4)GlcNAc", "summary_of_the_method": "as §1"}, "[18]": {"target": "Gal(b1-3)Gal(b1-4)GlcNAc(b1-2)Man(a1-3)[Gal(b1-3)Gal(b1-4)GlcNAc(b1-2)Man(a1-6)]Man(b1-4)GlcNAc(b1-4)GlcNAc", "summary_of_the_method": "as §1"}, "[19]": {"target": "Gal(b1-3)GalNAc", "summary_of_the_method": "as §1"}, "[20]": {"target": "Gal(b1-3)GalNAc(a1-3)[Fuc(a1-2)]Gal(b1-4)Glc", "summary_of_the_method": "as §1"}, "[21]": {"target": "Gal(b1-3)GalNAc(a1-3)[Fuc(a1-2)]Gal(b1-4)GlcNAc", "summary_of_the_method": "as §1"}, "[22]": {"target": "Gal(b1-3)GalNAc(b1-3)Gal(a1-4)Gal(b1-4)Glc", "summary_of_the_method": "as §1"}, "[23]": {"target": "Gal(b1-3)GalNAc(b1-4)Gal(b1-4)Glc", "summary_of_the_method": "as §1"}, "[24]": {"target": "Gal(b1-3)GalNAc(b1-4)[Neu5Ac(a2-3)]Gal(b1-4)Glc", "summary_of_the_method": "as §1"}, "[25]": {"target": "Gal(b1-3)GlcNAc", "summary_of_the_method": "as §1"}, "[26]": {"target": "Gal(b1-3)GlcNAc(b1-2)Man(a1-3)[Gal(b1-3)GlcNAc(b1-2)Man(a1-6)]Man(b1-4)GlcNAc(b1-4)GlcNAc", "summary_of_the_method": "as §1"}, "[27]": {"target": "Gal(b1-3)GlcNAc(b1-2)Man(a1-3)[Gal(b1-3)GlcNAc(b1-2)Man(a1-6)]Man(b1-4)GlcNAc(b1-4)[Fuc(a1-6)]GlcNAc", "summary_of_the_method": "as §1"}, "[28]": {"target": "Gal(b1-3)GlcNAc(b1-3)Gal(b1-3)GlcNAc", "summary_of_the_method": "as §1"}, "[29]": {"target": "Gal(b1-3)GlcNAc(b1-3)Gal(b1-4)Glc", "summary_of_the_method": "as §1"}, "[30]": {"target": "Gal(b1-3)GlcNAc(b1-3)Gal(b1-4)GlcNAc", "summary_of_the_method": "as §1"}}, "note": "The other results are listed elsewhere or left out.", "data": [{"binder": "B1", "values": [{"measurement": "glycan array binding signal (z-score)", "setting": "[1]", "result": -0.019}, {"measurement": "glycan array binding signal (z-score)", "setting": "[2]", "result": -0.435}, {"measurement": "glycan array binding signal (z-score)", "setting": "[3]", "result": -0.247}, {"measurement": "glycan array binding signal (z-score)", "setting": "[4]", "result": -0.239}, {"measurement": "glycan array binding signal (z-score)", "setting": "[5]", "result": -0.154}, {"measurement": "glycan array binding signal (z-score)", "setting": "[6]", "result": -0.279}, {"measurement": "glycan array binding signal (z-score)", "setting": "[7]", "result": -0.272}, {"measurement": "glycan array binding signal (z-score)", "setting": "[8]", "result": -0.092}, {"measurement": "glycan array binding signal (z-score)", "setting": "[9]", "result": -0.215}, {"measurement": "glycan array binding signal (z-score)", "setting": "[10]", "result": -0.334}, {"measurement": "glycan array binding signal (z-score)", "setting": "[11]", "result": -0.293}, {"measurement": "glycan array binding signal (z-score)", "setting": "[12]", "result": -0.312}, {"measurement": "glycan array binding signal (z-score)", "setting": "[13]", "result": -0.109}, {"measurement": "glycan array binding signal (z-score)", "setting": "[14]", "result": -0.243}, {"measurement": "glycan array binding signal (z-score)", "setting": "[15]", "result": -0.078}, {"measurement": "glycan array binding signal (z-score)", "setting": "[16]", "result": -0.321}, {"measurement": "glycan array binding signal (z-score)", "setting": "[17]", "result": -0.205}, {"measurement": "glycan array binding signal (z-score)", "setting": "[18]", "result": -0.074}, {"measurement": "glycan array binding signal (z-score)", "setting": "[19]", "result": 0.238}, {"measurement": "glycan array binding signal (z-score)", "setting": "[20]", "result": -0.137}, {"measurement": "glycan array binding signal (z-score)", "setting": "[21]", "result": 0.06}, {"measurement": "glycan array binding signal (z-score)", "setting": "[22]", "result": -0.124}, {"measurement": "glycan array binding signal (z-score)", "setting": "[23]", "result": -0.128}, {"measurement": "glycan array binding signal (z-score)", "setting": "[24]", "result": -0.275}, {"measurement": "glycan array binding signal (z-score)", "setting": "[25]", "result": -0.25}, {"measurement": "glycan array binding signal (z-score)", "setting": "[26]", "result": 0.93}, {"measurement": "glycan array binding signal (z-score)", "setting": "[27]", "result": -0.357}, {"measurement": "glycan array binding signal (z-score)", "setting": "[28]", "result": -0.236}, {"measurement": "glycan array binding signal (z-score)", "setting": "[29]", "result": -0.267}, {"measurement": "glycan array binding signal (z-score)", "setting": "[30]", "result": -0.352}]}]}
